# Laboratory results from PubChem BioAssay AID1347055 (National Center for Advancing Translational Sciences (NCATS), 2019).
# Several values for one entry are separate records, joined by “and”; a condition that tells them apart may be missing. Equal entries are not always repeated. About 120 (0.22%) of roughly 54,000 compounds were called active. Inconclusive means that the source gave no clear call. Such entries were picked first, then a sample of the others. Calls follow the shape of the dose curve; as a rule, active = well fitted inhibition curve with a large enough effect; inconclusive = small, poorly fitted or top-dose-only effect, or effect the other way; inactive = flat fitted curve, though single readings scatter. Potencies of inconclusive entries are doubtful fits and often do not repeat.
# Target: Fumarate hydratase, mitochondrial (Homo sapiens) (UniProt P07954)
# UniProt P07954, sequence (P07954 whole entry, looked up): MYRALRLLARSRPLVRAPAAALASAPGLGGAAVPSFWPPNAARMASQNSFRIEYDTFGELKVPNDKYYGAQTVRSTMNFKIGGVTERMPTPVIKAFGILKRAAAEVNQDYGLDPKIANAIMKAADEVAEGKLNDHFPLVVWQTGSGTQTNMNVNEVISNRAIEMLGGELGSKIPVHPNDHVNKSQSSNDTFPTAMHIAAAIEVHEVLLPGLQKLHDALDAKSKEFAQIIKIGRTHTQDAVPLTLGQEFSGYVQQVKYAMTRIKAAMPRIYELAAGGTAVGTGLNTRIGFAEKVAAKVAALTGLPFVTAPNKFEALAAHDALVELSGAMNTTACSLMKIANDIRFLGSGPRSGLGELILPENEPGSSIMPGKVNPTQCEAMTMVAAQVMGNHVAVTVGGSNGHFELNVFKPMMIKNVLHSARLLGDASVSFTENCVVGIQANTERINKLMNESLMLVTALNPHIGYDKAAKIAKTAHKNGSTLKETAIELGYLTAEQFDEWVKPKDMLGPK
# Test: Identification of activators of human fumarate hydratase by quantitative high-throughput screening; also: the screen sought activators but most active calls are inhibition curves; nearly all actives have a fitted effect of over 45% in size
# Conditions: FH coupled MDH/diaphorase resazurin fluorescence, 15 min; series mostly up to 53.3 µM; activity change, negative = inhibition: at the top concentration
# Description: Fumarate hydratase (FH) is a metabolic enzyme that is part of the Krebs-cycle, and reversibly catalyzes the hydration of fumarate to malate. Mutations of the FH gene have been associated with fumarate hydratase deficiency (FHD), hereditary leiomyomatosis, renal cell cancer (HLRCC), and other diseases. Currently there are no high-quality small molecule probes for studying human fumarate hydratase. To address this, we developed a quantitative high throughput screening (qHTS) FH assay and screened a total of 57,037 compounds in dose-response. While no inhibitors of FH were confirmed, a series of phenyl-pyrrolo-pyrimidine-diones (12 compounds) were identified as activators of human fumarate hydratase. […] The binding of two compounds from the series to human fumarate hydratase was confirmed by microscale thermophoresis. The low hit rate in this screening campaign confirmed that FH is a "tough target" to modulate, and the small molecule activators of human fumarate hydratase reported here may serve as a starting point for further optimization and development into cellular probes of human FH and potential drug candidates.
# For primary high-throughput screen, 3 ul of FH solution (containing 13.33nM human fumarate hydratase, 13.33IU/ml malic dehydrogenase, 0.2mM NAD, 0.067mg/ml diaphorase and 0.067mM resazurin in the assay buffer (50 mM Tris pH 8.0, 5 mM MgCl2, 0.01% Brij 3) was dispensed into each well in a black solid bottom 1536-well assay plate (Greiner Bio-One) using a BioRAPTR FRD dispenser (Beckman Coulter, Brea, CA). A 1536-well pintool dispenser outfitted with 20 nl pins (Wako Automation, San Diego, CA) was used to transfer 20 nL of DMSO-solubilized compound (Cherrypick plates) to each 1536-well assay plate. Each compound was screened at five concentrations: 15 nM, 151 nM, 1.5 uM, 15.4 uM, 76.9 uM. Following compound transfer, plates were incubated in room temperature for 10 minutes. 1 uL of substrate solution containing fumaric acid (160 uM) was dispensed via BioRAPTR FRD to initiate the reaction. Plates were immediately transferred to a ViewLux microplate imager (PerkinElmer, Waltham, MA), and any resulting resorufin fluorescence was measured (exitation/emission, 525/598 nm) at 0 and 15 minutes. The exposure time is 1 second. Fluorescence from each well was normalized using enzyme-free and DMSO-treated control wells on each plate, and changes in fluorescence (delta RFU) were calculated using the difference in fluorescent signal for each well at 15 minutes versus 0 minutes.
# % is scaled to controls: 0 for no effect and ±100 for the full control effect; potency is read from the fitted curve at half-maximal effect; tags tell the direction and shape of the fitted curve.
Structure (SMILES),Potency,"activity change, negative = inhibition"
O=C1C(I)=CC(=C(c2cc(I)c(O)c(I)c2)c2ccccc2C(=O)O)C=C1I,"inconclusive: 15.5 µM [inhibitor, partial curve]",–
S=C(NC1CCCCC1)N1CCC(c2cnc[nH]2)CC1,"inconclusive: 5.01 µM [activator, single point]",–
CC(C)(C)NC[C@H](O)c1ccc(O)cc1Cl,–,inactive: -3.75%
C/C=C(\C)C(=O)O[C@H]1[C@H](OC(C)=O)[C@]2(CO)[C@H](O)[C@H](O)[C@]3(C)C(=CCC4[C@@]5(C)CC[C@H](O[C@@H]6O[C@H](C(=O)O)[C@@H](O)[C@H](O[C@@H]7OC[C@H](O)[C@H](O[C@@H]8OC[C@H](O)[C@H](O)[C@H]8O)[C@H]7O)[C@H]6O[C@@H]6O[C@H](CO)[C@@H](O)[C@H](O)[C@H]6O)C(C)(C)C5CC[C@]43C)[C@@H]2CC1(C)C (some centres not stated),–,inactive: -0.0168% [at 13.5 µM]
Cc1ccc(Cn2cccc(C(=O)Nc3nnc(C)s3)c2=O)cc1,–,inactive: -3.37% [at 79.9 µM]
C[C@]12Cc3cn[nH]c3C[C@@H]1CC[C@@H]1[C@H]2CC[C@@]2(C)[C@H]1CC[C@]2(C)O,–,inactive: 2.67%
CC(C)=C1CC[C@]23CO[C@H](C2)[C@@](O)(C(=O)O)CCC13 (some centres not stated),–,inactive: -6.29% [at 79.9 µM]
C[C@]12COC(=O)C[C@@H]1CC[C@@H]1[C@H]2CC[C@@]2(C)[C@H]1CC[C@]2(C)O,–,inactive: 0.987%
NCC(O)c1cc(O)c(O)cc1F (configuration not stated),"inconclusive: 31.6 µM [inhibitor, partial curve, poor fit]",–
O=C1/C(=C/c2ccccc2)C[C@@]2(O)[C@H]3Cc4ccc(O)c5c4[C@@]2(CCN3CC2CC2)[C@H]1O5,"inconclusive: 35.5 µM [inhibitor, single point]",–
C[C@]12CC[C@@H]3[C@@H](CCC4=CC(=O)CC[C@@H]43)[C@@H]1CC[C@@H]2OC(=O)CCc1ccccc1,–,inactive: -10.7%
CCOC(=O)Nc1ccc(NCc2c(C)cc(C)cc2C)cc1N,"inconclusive: 7.08 µM [inhibitor, partial curve]",–
Cc1nnc2n1-c1sc(CCc3ccc(CC(C)C)cc3)cc1C(c1ccccc1Cl)=NC2C (configuration not stated),"inconclusive: 35.5 µM [inhibitor, partial curve, poor fit]",–
N#Cc1cc2c(nc1SCC(=O)Nc1ccc(C(F)(F)F)cc1)C1CCN2CC1,–,inactive: -6.2% [at 79.9 µM]
C=C(C)[C@@H]1CCC(C)=C[C@H]1c1c(O)cc(CCCCC)cc1O,"inconclusive: 50.1 µM [inhibitor, single point]",–
CCc1cccc(NC(=O)CN2C(=O)CN=C(c3ccccc3F)c3cc(Cl)ccc32)c1,"inconclusive: 39.8 µM [inhibitor, partial curve, poor fit]",–
C/C=C(\C)C(=O)OC1C2C3(C)CCC(OC4CC(OC)C(OC5OC(C)C(O)C(OC)C5O)C(C)O4)CC3CCC23OC32CCC(C(C)=O)C2(C)C1OC(=O)/C(C)=C/C (configuration not stated),–,inactive: 3.97% [at 20.6 µM]
O=c1oc2ccccc2c(O)c1C(CC(O)c1ccc(-c2ccc(Br)cc2)cc1)c1ccccc1 (configuration not stated),"inconclusive: 21.9 µM [inhibitor, partial curve]",–
N#C/C(=C/c1ccc(O)c(O)c1)C(N)=S,"active: 12.6 µM and inconclusive: 39.8 µM [inhibitor, partial curve]",–
CN1C2CCC1CC(OC(=O)N1Cc3ccccc3NC1=O)C2 (configuration not stated),–,inactive: 2.08% [at 79.9 µM]
Cc1cc(C)cc(OCC(=O)Nc2ccc(Cl)cc2C(=O)c2ccccc2)c1,–,inactive: -5.94% [at 79.9 µM]

Structure (SMILES),Potency,"activity change, negative = inhibition"
C[C@]12Cc3cn4c(nc3C=C1CCC1C2CC[C@@]2(C)[C@H]1CC[C@@]2(O)C#N)nc1ccccc14 (some centres not stated),"inconclusive: 31.6 µM [inhibitor, partial curve]",–
CCC(C)(O)C1(C(=O)O)COC(=O)C1 (configuration not stated),–,inactive: -0.472% [at 79.9 µM]
O=C(CN1C(=O)CN=C(c2ccccc2)c2ccccc21)Nc1cccc(C(F)(F)F)c1,"inconclusive: 31.6 µM [inhibitor, single point]",–
Nc1c(C(=O)Nc2cccc(Br)c2)sc2nc3c(cc12)N1CCC3CC1,–,inactive: -23.9% [at 79.9 µM]
CC12CCC3C(C1)c1c(cc(O)c(C(=O)c4ccccc4)c1OC3(C)C)O2 (configuration not stated),–,inactive: -2.29%
Oc1ccc2c3c1O[C@H]1c4[nH]c5c(c4C[C@@]4(O)[C@@H](C2)N(CC2CC2)CC[C@]314)C[C@@]1(O)[C@H]2Cc3ccc(O)c4c3[C@@]1(CCN2CC1CC1)[C@H]5O4,"inconclusive: 22.4 µM [inhibitor, single point]",–
Oc1ccc(Cl)cc1Cc1ccccc1,"inconclusive: 25.6 µM [inhibitor, partial curve]",–
CC1=C(O)C(=O)C=C2C1=CC=C1[C@@]2(C)CC[C@@]2(C)[C@@H]3C[C@](C)(C(=O)O)CC[C@]3(C)CC[C@]12C,"inconclusive: 27.3 µM [inhibitor, partial curve]",–
Cc1cc(OCC(=O)N2CCN(CCc3ccccn3)CC2)cc(C)c1Cl,"inconclusive: 31.6 µM [inhibitor, single point]",–
CCN(CC)C(=O)c1ccc(NC(=O)CCn2nc(-c3ccc(Cl)cc3)c3ccccc3c2=O)cc1,"inconclusive: 11.2 µM [inhibitor, partial curve, poor fit]",–
CC(C)(NC(=O)[C@@H](N)Cc1ccc(O)cc1)C(=O)N[C@@H](Cc1cc2ccccc2[nH]1)C(=O)N[C@@H](Cc1ccccc1)C(=O)O,–,inactive: 3.67% [at 13.5 µM]
c1cc2c(cc1C1OC[C@@H]3C(c4ccc5c(c4)OCO5)OC[C@H]13)OCO2 (some centres not stated),–,inactive: -10.9% [at 79.9 µM]
C/C=C(/C)C(=O)O[C@H]1C(C)=C2[C@H]([C@@H]1OC(=O)CCCCCCC)[C@@](C)(OC(C)=O)C[C@H](OC(=O)CCC)[C@@]1(O)[C@H]2OC(=O)[C@@]1(C)O,"inconclusive: 25.1 µM [inhibitor, single point] and inconclusive: 10 µM [inhibitor, partial curve]",–
CCOc1ccc(CN(CCc2ccc3c(c2)OCO3)Cc2cccc(Br)c2)cc1,–,inactive: -7.64% [at 79.9 µM]
COc1ccc2c(c1OC)CN1CCc3cc4c(cc3C1C2)OCO4 (configuration not stated),"inconclusive: 31.6 µM [activator, partial curve, poor fit]",–
COc1ccc(NC(=O)CCc2nc(C3=CCN(Cc4cccc(C)c4)CC3)no2)c(OC)c1,"inconclusive: 50.1 µM [activator, single point]",–
COc1cc(O)c2c(c1)CCC[C@@H](O)[C@H](O)C(=O)/C=C\C[C@H](C)OC2=O,–,inactive: 0.819%
CCCCCCCCCCCCCCCC[N+](C)(C)C,–,inactive: -3.06%
CN1C[C@H](CNC(=O)OCc2ccccc2)C[C@@H]2c3cccc4c3c(cn4C)C[C@H]21,inactive,–
Cc1cccc(NC(=O)c2ccc(C(F)(F)F)cc2C(=O)O)n1,"inconclusive: 1 µM [activator, full curve, poor fit]",–
O=C(N1CCCCC1Cc1ccccc1)n1cc(-c2ccc(-c3ccccc3)cc2)nn1 (configuration not stated),–,inactive: -3.49% [at 79.9 µM]

Structure (SMILES),Potency,"activity change, negative = inhibition"
COc1cc(O)c2c(c1)/C=C/C[C@@H](O)[C@@H](O)C(=O)CCC[C@H](C)OC2=O,–,inactive: -2.29%
CN1C(=O)[C@@H](Cc2c[nH]c3ccccc23)N=C(c2ccccc2F)c2ccccc21,"inconclusive: 39.8 µM [inhibitor, partial curve, poor fit]",–
CNC(=O)Oc1cccc2ccccc12,"inconclusive: 13.8 µM [inhibitor, partial curve]",–
CCN1CCN(C(=O)Cc2ccc(Nc3ncc(F)c(Nc4ccc(C(=O)Nc5ccccc5Cl)cc4)n3)cc2)CC1,"inconclusive: 11.2 µM [activator, single point]",–
O=S(=O)(c1ccccc1F)N1CCOc2c(N3CCNCC3)cccc21,–,inactive: 3.36% [at 79.9 µM]
CC(=O)O[C@@H]1[C@@H](O)[C@H]2O[C@@H]3C=C(C)[C@@H](O)C[C@]3(CO)[C@]1(C)[C@]21CO1,–,inactive: -1.04%
Cc1ccccc1-n1c(/C=C/c2ccccc2F)nc2ccccc2c1=O,"inconclusive: 17.8 µM [inhibitor, partial curve, poor fit]",–
C[C@]12Cc3nonc3C[C@@H]1CC[C@@H]1[C@@H]2CC[C@@]2(C)[C@H]1CC[C@]2(C)O,–,inactive: -10.8%
COC[C@H]1OC(=O)c2coc3c2[C@@]1(C)C1=C(C3=O)C2CCC(=O)[C@@]2(C)C[C@H]1OC(C)=O (some centres not stated),"inconclusive: 39.8 µM [inhibitor, single point]",–
CCCCCn1cc(C(=O)Oc2cccc3cccnc23)c2ccccc21,–,inactive: -10.7% [at 79.9 µM]
CN1CN(c2ccccc2)C2(CCN(CCCC(=O)c3ccc(F)cc3)CC2)C1=O,"inconclusive: 0.282 µM [activator, full curve, poor fit]",–
Cc1ccc(C)c(CN2C(=O)c3ccccc3Sc3ccc(C(=O)N4CCC5(CC4)OCCO5)cc32)c1,"inconclusive: 28.2 µM [inhibitor, partial curve, poor fit]",–
COc1ccccc1CN[C@H]1C2CCN(CC2)[C@H]1C(c1ccccc1)c1ccccc1,–,inactive: 7.94% [at 79.9 µM]
COc1ccc2c(c1O)-c1cccc3c1[C@@H](C2)N(C)CC3,"inconclusive: 39.8 µM [inhibitor, single point]",–
CCOC(=O)Nc1ccc(NCc2ccc(F)cc2)cc1N,"inconclusive: 20 µM [inhibitor, partial curve]",–
CC(C)(C)c1cc(C=C(C#N)C#N)cc(C(C)(C)C)c1O,"inconclusive: 25.1 µM [inhibitor, single point]",–
NC(N)=Nc1ccc2[nH]c3c(c2c1)C[C@@]1(O)[C@H]2Cc4ccc(O)c5c4[C@@]1(CCN2CC1CC1)[C@H]3O5,"inconclusive: 31.6 µM [inhibitor, single point]",–
CCCN(CCC)CCc1c[nH]c2ccccc12,–,inactive: -4.55% [at 79.9 µM]
CCC(CC)(CNC(=O)CCCO)c1cccc(OC)c1,–,inactive: 5.04%
CC(C)(C)c1cc(C=C(C#N)C#N)cc(Br)c1O,"inconclusive: 28.2 µM [inhibitor, single point]",–
